6 substances from article PMC8913617 can be followed below.

Amino acid sequences for entries named in this document (tags omitted).
UniProt P10415: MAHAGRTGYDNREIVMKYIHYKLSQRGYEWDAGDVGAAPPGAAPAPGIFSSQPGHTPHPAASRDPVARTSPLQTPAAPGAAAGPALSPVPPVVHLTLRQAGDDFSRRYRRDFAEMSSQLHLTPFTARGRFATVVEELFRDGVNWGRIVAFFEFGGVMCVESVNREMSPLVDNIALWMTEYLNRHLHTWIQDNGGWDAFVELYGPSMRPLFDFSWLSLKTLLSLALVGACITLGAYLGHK
UniProt P29994: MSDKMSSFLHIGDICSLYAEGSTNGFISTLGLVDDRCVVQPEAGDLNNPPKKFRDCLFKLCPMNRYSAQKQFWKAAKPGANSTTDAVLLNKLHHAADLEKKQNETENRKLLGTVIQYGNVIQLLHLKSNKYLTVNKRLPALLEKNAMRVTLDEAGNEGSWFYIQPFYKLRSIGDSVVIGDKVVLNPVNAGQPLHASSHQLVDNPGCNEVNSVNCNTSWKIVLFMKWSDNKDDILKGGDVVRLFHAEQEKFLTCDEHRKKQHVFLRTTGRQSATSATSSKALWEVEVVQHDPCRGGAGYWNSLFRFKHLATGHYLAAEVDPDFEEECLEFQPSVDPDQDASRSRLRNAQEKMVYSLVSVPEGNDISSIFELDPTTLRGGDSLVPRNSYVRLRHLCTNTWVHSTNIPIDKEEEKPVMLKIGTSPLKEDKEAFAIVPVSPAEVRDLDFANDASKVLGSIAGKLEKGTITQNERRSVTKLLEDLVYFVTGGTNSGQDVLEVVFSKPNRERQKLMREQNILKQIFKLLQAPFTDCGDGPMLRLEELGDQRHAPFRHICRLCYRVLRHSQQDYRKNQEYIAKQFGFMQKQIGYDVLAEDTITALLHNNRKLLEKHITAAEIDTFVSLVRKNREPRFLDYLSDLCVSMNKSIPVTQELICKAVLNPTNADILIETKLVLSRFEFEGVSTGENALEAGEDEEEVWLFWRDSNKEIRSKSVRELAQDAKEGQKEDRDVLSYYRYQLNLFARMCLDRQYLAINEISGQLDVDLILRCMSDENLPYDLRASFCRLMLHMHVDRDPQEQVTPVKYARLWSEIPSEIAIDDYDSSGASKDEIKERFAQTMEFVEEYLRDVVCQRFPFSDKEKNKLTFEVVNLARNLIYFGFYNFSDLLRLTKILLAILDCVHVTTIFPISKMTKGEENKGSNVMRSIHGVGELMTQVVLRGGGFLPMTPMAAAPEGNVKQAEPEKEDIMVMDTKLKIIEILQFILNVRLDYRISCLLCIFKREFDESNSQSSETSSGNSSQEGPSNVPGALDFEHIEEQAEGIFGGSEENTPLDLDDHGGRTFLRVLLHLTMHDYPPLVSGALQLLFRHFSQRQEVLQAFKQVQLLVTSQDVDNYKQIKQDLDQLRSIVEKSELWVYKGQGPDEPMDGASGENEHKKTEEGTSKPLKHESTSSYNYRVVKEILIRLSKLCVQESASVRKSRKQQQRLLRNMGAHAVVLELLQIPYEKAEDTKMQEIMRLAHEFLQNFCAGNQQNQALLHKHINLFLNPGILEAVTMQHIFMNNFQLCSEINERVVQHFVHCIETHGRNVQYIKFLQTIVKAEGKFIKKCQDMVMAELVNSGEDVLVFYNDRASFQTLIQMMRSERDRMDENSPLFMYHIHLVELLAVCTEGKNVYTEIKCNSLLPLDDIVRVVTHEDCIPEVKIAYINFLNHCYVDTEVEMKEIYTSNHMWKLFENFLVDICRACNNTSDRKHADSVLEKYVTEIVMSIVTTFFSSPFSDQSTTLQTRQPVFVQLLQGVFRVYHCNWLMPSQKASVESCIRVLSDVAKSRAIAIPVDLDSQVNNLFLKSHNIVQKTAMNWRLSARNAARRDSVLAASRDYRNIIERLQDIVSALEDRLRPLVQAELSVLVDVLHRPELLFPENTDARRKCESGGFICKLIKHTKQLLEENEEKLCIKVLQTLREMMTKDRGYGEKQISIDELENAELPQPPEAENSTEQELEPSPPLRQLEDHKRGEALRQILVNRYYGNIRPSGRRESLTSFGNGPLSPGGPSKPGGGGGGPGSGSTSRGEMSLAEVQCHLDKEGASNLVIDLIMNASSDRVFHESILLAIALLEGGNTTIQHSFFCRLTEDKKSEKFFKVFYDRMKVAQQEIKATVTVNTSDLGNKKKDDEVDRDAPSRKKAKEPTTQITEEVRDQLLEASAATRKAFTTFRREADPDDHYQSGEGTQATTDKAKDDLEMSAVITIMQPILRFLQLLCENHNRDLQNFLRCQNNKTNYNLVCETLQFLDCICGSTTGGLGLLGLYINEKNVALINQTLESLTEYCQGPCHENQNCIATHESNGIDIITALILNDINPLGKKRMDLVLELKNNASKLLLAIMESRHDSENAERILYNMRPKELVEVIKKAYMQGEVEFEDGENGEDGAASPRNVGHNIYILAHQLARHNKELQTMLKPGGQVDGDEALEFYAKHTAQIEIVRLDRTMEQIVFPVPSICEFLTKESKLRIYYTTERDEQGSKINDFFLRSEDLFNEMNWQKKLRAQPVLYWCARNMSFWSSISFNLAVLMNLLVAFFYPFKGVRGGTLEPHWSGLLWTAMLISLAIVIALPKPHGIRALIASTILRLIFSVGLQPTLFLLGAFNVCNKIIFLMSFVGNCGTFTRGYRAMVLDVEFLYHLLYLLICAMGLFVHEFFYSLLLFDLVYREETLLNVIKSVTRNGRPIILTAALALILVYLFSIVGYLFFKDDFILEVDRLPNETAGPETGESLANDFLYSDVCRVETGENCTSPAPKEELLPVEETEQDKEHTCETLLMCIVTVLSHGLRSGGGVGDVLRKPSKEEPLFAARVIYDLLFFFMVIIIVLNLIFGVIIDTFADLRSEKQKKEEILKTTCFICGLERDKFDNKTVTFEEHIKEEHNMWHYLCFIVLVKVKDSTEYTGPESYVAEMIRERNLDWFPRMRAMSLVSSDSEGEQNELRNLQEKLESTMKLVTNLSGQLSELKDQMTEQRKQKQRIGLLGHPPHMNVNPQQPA
UniProt Q63269: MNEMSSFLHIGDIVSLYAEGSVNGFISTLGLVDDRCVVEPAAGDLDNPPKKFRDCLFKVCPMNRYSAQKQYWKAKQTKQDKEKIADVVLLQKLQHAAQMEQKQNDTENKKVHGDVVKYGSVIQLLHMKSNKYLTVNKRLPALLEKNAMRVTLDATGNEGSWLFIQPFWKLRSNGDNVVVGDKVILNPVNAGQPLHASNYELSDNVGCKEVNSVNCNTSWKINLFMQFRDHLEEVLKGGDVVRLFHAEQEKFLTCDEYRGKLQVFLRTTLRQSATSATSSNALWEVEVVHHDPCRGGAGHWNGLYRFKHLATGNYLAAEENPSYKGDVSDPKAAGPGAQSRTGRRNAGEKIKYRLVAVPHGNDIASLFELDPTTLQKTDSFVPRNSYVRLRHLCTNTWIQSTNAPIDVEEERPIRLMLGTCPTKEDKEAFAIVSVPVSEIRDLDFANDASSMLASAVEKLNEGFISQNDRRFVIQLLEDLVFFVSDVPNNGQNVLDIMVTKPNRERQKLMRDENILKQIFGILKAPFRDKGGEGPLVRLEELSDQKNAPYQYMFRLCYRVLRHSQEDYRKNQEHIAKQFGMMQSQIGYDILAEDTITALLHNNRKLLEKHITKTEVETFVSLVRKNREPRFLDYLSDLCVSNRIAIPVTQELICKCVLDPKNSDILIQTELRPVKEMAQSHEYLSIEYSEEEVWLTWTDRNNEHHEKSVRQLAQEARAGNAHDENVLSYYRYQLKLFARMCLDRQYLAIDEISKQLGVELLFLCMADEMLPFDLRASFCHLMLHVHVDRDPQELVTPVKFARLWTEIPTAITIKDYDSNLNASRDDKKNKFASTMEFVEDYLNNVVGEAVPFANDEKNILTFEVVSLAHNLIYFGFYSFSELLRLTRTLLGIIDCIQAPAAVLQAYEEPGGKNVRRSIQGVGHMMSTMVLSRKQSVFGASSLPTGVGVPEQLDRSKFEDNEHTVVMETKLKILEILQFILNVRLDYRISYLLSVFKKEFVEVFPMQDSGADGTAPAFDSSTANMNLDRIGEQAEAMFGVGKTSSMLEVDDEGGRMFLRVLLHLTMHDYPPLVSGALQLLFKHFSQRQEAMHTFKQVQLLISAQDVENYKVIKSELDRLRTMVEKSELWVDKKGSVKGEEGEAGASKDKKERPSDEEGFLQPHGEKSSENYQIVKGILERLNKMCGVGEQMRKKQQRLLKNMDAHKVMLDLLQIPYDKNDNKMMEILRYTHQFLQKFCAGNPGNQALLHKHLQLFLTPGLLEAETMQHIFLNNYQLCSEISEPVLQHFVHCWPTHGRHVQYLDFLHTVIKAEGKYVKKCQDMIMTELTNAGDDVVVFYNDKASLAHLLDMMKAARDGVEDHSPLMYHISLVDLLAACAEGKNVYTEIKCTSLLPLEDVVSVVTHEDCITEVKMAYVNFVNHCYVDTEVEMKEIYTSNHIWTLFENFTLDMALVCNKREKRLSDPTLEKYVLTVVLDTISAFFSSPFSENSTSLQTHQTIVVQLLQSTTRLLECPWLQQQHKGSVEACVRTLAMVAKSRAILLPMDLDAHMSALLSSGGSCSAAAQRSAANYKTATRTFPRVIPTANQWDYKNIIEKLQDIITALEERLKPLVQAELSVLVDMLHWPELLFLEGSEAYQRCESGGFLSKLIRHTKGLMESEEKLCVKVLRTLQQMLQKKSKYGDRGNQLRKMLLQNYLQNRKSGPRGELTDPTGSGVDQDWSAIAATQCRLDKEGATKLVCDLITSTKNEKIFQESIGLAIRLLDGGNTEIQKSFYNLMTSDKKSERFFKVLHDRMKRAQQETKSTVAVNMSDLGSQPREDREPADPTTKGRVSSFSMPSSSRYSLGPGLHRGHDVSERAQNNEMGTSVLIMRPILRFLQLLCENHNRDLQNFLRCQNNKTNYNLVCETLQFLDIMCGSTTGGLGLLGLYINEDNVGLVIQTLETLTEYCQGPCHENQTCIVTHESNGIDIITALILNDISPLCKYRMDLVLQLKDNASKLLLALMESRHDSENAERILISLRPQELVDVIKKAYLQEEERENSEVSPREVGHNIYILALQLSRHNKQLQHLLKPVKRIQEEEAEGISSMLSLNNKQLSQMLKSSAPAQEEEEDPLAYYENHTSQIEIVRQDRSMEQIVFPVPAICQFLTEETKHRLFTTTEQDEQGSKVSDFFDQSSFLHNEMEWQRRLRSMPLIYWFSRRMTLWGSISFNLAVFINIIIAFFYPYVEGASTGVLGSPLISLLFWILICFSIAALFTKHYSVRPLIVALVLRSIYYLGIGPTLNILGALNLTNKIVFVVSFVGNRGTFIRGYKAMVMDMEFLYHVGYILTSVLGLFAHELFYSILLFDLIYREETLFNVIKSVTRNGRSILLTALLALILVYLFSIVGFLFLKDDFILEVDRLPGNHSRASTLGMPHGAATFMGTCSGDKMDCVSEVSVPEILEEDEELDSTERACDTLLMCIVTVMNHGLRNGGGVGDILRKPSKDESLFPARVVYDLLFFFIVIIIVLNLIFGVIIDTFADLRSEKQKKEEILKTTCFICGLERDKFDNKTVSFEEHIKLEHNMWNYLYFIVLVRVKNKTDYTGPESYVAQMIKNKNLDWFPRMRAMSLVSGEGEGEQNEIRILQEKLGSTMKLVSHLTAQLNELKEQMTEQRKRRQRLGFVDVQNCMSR
UniProt P10417: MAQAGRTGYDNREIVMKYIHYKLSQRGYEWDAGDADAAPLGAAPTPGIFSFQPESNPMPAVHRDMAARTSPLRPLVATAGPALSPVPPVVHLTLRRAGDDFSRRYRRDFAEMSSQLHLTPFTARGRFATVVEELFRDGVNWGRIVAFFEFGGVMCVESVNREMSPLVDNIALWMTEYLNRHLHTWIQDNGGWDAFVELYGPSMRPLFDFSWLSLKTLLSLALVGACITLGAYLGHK

Assay [1] has as its target T1, iRhom2-HA (wild type, transiently expressed in HEK293T cells) (mouse (from the plasmid name pM6P.Blast-miR2)) (UniProt Q80WQ6).
T1 sequence: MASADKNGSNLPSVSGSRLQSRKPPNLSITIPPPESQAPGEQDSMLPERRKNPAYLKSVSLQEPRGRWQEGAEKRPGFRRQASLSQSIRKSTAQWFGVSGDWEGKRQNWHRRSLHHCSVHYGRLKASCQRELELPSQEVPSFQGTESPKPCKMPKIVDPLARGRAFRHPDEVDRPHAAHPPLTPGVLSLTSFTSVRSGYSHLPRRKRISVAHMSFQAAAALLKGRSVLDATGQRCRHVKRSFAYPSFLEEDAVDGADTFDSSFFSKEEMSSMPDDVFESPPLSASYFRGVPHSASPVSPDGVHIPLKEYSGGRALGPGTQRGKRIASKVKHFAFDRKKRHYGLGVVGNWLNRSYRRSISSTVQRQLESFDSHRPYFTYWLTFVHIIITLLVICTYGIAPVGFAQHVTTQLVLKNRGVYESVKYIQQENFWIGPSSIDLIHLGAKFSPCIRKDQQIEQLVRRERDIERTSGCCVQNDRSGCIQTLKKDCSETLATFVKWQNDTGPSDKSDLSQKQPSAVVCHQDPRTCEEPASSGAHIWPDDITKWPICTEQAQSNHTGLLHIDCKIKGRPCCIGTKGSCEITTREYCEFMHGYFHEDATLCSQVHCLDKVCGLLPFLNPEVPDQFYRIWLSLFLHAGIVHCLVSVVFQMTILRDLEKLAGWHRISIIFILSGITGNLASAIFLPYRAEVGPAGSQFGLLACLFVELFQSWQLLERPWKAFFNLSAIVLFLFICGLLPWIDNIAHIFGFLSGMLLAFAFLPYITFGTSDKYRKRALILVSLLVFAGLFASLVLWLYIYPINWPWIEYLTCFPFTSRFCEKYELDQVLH
Nature of the assay: co-IP; HEK293T transiently co-transfected with two tagged proteins for 36-48 h; lysis in 1% Triton X-100, 200 mM NaCl, 50 mM Tris-HCl pH 7.4; anti-HA or anti-FLAG M2 magnetic beads, 4 °C overnight; washes with 500 mM NaCl; immunoblot; in Fig. 4f with tunicamycin (2 µg/ml) for the last 18 h.

In assay [2] the target is T2, iR2-Δ100 (iRhom2 lacking the N-terminal 100 residues), 3XHA (mouse (from the plasmid name pM6P.Blast-miR2)) (UniProt Q80WQ6).
T2 sequence: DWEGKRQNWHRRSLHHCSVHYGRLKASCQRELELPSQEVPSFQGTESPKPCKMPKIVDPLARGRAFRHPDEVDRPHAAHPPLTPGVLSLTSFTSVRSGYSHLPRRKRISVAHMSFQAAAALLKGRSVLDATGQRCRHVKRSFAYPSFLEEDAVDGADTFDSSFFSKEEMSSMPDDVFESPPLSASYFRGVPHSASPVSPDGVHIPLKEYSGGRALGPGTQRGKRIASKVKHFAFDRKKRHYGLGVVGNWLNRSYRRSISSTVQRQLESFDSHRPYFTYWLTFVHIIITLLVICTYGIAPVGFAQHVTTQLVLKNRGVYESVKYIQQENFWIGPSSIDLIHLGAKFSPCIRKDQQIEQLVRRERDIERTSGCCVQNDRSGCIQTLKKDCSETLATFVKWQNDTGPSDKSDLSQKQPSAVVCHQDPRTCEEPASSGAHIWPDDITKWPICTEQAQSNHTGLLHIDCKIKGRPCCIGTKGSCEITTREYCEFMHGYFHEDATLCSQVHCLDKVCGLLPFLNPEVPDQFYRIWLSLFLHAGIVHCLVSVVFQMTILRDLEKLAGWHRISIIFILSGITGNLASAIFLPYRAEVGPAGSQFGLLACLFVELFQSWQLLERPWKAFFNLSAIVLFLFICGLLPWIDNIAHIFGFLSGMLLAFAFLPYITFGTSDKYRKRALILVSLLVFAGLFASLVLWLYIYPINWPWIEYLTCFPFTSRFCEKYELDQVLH
The assay is described as above.

Assay [3] deals with T3, iRhom1 (tagged, co-IP of Supplementary Fig. 4a) (UniProt Q6PIX5).
T3 sequence: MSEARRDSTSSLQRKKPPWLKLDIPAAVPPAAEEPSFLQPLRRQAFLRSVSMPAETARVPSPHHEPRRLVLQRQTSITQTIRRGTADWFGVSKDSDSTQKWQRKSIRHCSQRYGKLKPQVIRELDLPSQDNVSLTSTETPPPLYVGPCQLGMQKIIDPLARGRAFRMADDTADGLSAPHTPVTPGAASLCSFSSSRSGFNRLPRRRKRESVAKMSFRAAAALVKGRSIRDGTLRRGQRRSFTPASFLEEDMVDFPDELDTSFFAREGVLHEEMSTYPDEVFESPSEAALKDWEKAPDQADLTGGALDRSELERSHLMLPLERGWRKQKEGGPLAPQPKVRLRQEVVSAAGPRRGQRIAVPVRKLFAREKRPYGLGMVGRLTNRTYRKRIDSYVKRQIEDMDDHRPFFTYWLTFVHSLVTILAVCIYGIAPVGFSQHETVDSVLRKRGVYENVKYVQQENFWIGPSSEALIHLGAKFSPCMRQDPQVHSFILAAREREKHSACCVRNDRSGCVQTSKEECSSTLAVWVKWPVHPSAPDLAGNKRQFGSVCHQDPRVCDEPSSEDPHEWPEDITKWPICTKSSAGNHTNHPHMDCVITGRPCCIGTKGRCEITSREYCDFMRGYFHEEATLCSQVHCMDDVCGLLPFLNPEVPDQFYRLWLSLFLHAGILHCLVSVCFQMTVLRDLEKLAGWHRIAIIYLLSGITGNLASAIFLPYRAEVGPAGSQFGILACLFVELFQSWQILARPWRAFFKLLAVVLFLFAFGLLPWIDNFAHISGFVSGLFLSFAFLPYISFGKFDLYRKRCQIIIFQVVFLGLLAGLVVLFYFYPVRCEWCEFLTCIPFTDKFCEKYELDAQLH
As to the kind of experiment: co-IP; cells expressing tagged iRhom and IP3R3 (Supplementary Fig. 4a); cells and tags not shown.

In assay [4] the target is T1, iRhom2-HA (wild type, transiently expressed in HEK293T cells) (mouse (from the plasmid name pM6P.Blast-miR2)). Described as above.
In assay [5] the target is T4, iRhom2-3XHA stably expressed in iRhom1/2 DKO MEFs (mouse (from the plasmid name pM6P.Blast-miR2)) (UniProt Q80WQ6).
T4 sequence: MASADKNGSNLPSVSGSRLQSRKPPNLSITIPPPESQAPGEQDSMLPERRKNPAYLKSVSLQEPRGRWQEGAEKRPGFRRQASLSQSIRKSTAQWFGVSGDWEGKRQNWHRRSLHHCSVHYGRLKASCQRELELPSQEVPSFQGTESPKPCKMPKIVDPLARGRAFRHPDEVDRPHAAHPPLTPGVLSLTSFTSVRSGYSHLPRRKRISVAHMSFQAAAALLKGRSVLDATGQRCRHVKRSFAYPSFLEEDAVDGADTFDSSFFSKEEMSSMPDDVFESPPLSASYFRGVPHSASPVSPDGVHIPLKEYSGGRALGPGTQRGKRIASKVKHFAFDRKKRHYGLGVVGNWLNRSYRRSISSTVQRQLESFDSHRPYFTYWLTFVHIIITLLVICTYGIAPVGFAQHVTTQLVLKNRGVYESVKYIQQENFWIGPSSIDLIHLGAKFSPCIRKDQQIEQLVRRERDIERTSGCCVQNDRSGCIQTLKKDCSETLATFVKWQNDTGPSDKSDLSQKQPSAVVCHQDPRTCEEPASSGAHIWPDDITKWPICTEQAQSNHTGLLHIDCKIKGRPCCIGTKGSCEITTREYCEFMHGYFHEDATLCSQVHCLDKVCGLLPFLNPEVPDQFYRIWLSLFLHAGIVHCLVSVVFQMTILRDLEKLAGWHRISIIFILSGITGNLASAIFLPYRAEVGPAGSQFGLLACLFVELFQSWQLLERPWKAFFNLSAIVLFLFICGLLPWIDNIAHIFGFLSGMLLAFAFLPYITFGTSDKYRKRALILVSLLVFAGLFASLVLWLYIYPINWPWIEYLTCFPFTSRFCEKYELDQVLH
As to the kind of experiment: co-IP; iRhom1/2 DKO MEFs stably expressing HA-tagged iRhom2 forms; endogenous partners; lysis in 1% Triton X-100, 200 mM NaCl, 50 mM Tris-HCl pH 7.4; anti-HA magnetic beads, 4 °C overnight; washes with 500 mM NaCl; immunoblot; in Fig. 6b after 18 h with control or BIRD-2 peptides (10 or 20 µM).

These are yes or no findings as the source states them, for the method shown. Binding seen in cells or lysates may run through a third protein. Some results given as binding are weak or reduced against the parent protein; the word gives no strength. For some assays here: Tags and fused reporters may be left off the sequences shown.

“FLAG-BCL-2_WT (from UniProt P10415 1-239)”: the binding result in assay [1] and in assay [2] was “binds” throughout.

Take “FLAG-IP3R1 (from UniProt P11881 1-2749) (receptor)”: in assay [1], the binding result was “binds”. Still for that read-out and setting: under “GFP-IP3R1 (from UniProt P29994 1-2750) (receptor)” stands “binds”. As to “IP3R3 (tagged, co-IP of Supplementary Fig. 4a) (from UniProt Q63269 1-2670) (receptor)”, the binding entry in assay [3] and in assay [4] was “binds” throughout. Take “endogenous BCL-2 of MEFs (from UniProt P10417 1-236)”: the binding result in assay [5] is “binds”. With “endogenous BCL-XL of MEFs (from UniProt Q64373-1 1-233)”, the binding result in assay [5] is recorded as “no binding”.
